According to PMC12820563, “FoxP3 forms a head-to-head dimer in vivo and stabilizes its multimerization on adjacent microsatellites”:
Some of the results follow.

target: T1, MBP-FoxP1dN (Mus musculus, UniProt P58462 326-579); experiment: PD-seq (MBP pull-down with sequencing); 20 mM Tris-HCl pH 7.5, 100 mM NaCl, 1.5 mM MgCl2, 0.4 uM protein, 0.1 uM dsDNA library, 30 min, room temperature, amylose pull-down; high values mean tight binding; conditions: protein: recombinant; tags: His6-MBP; chain copies: 2; dsDNA, one strand shown
T1 sequence: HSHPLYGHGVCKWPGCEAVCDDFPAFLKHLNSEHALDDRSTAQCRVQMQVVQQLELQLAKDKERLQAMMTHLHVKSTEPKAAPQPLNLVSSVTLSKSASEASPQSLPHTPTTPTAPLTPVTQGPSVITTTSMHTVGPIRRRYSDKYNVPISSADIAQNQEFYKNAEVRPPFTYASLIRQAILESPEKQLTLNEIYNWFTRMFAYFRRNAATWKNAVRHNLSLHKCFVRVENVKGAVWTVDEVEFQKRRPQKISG
In short: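 The N-terminus-lacking fragment of mouse FoxP3 or FoxP1 carried a His6-MBP tag and was expressed in E. coli. At 0.4 µM it was incubated with 0.1 µM Klenow-filled degenerate double-stranded DNA library for 30 min at room temperature in Tris pH 7.5 buffer with NaCl and MgCl2, and complexes were caught on amylose resin, washed three times, released with proteinase K, PCR-barcoded and Illumina-sequenced. Binding is reads-per-million enrichment of pull-down over input with replicates pooled.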

Row | Sequence | binding signal
1 | GATGATTGTTCTCCCAGCTGATGAATTCAATAAATCGAGTAAACAAATTTTCCTAATCTTTCTGTTCAAGCGCCATCTAC | 1.23 RPM ratio (pull-down/input)
2 | GATGATTGTTCTCCCAGCTGATGAATTACCAGTCTCGAGTAAACAAATTTTCCTAATCTTTCTGTTCAAGCGCCATCTAC | 0.859 RPM ratio (pull-down/input)
3 | GATGATTGTTCTCCCAGCTGATGAATTCAGAGAATCGAGTAAACAAATTTTCCTAATCTTTCTGTTCAAGCGCCATCTAC | 0.918 RPM ratio (pull-down/input)
4 | GATGATTGTTCTCCCAGCTGATGAATTATGAGCATCGAGTAAACAAATTTTCCTAATCTTTCTGTTCAAGCGCCATCTAC | 1.16 RPM ratio (pull-down/input)
5 | GATGATTGTTCTCCCAGCTGATGAATTATGCCGCTCGAGTAAACAAATTTTCCTAATCTTTCTGTTCAAGCGCCATCTAC | 0.975 RPM ratio (pull-down/input)
6 | GATGATTGTTCTCCCAGCTGATGAATTCGAACCGTCGAGTAAACAAATTTTCCTAATCTTTCTGTTCAAGCGCCATCTAC | 0.827 RPM ratio (pull-down/input)
7 | GATGATTGTTCTCCCAGCTGATGAATTAGTTAATTCGAGTAAACAAATTTTCCTAATCTTTCTGTTCAAGCGCCATCTAC | 1.06 RPM ratio (pull-down/input)
8 | GATGATTGTTCTCCCAGCTGATGAATTGGCTAAATCGAGTAAACAAATTTTCCTAATCTTTCTGTTCAAGCGCCATCTAC | 0.965 RPM ratio (pull-down/input)
9 | GATGATTGTTCTCCCAGCTGATGAATTCCATAACTCGAGTAAACAAATTTTCCTAATCTTTCTGTTCAAGCGCCATCTAC | 0.789 RPM ratio (pull-down/input)
10 | GATGATTGTTCTCCCAGCTGATGAATTTAGCCACTCGAGTAAACAAATTTTCCTAATCTTTCTGTTCAAGCGCCATCTAC | 0.885 RPM ratio (pull-down/input)
11 | GATGATTGTTCTCCCAGCTGATGAATTGTGCGTCTCGAGTAAACAAATTTTCCTAATCTTTCTGTTCAAGCGCCATCTAC | 1.09 RPM ratio (pull-down/input)
12 | GATGATTGTTCTCCCAGCTGATGAATTCCACCTATCGAGTAAACAAATTTTCCTAATCTTTCTGTTCAAGCGCCATCTAC | 0.864 RPM ratio (pull-down/input)
13 | GATGATTGTTCTCCCAGCTGATGAATTTGTACTCTCGAGTAAACAAATTTTCCTAATCTTTCTGTTCAAGCGCCATCTAC | 1.15 RPM ratio (pull-down/input)
14 | GATGATTGTTCTCCCAGCTGATGAATTGTTCACATCGAGTAAACAAATTTTCCTAATCTTTCTGTTCAAGCGCCATCTAC | 1.19 RPM ratio (pull-down/input)
15 | GATGATTGTTCTCCCAGCTGATGAATTTGAAGAATCGAGTAAACAAATTTTCCTAATCTTTCTGTTCAAGCGCCATCTAC | 0.925 RPM ratio (pull-down/input)
16 | GATGATTGTTCTCCCAGCTGATGAATTAATCCACTCGAGTAAACAAATTTTCCTAATCTTTCTGTTCAAGCGCCATCTAC | 0.965 RPM ratio (pull-down/input)
17 | GATGATTGTTCTCCCAGCTGATGAATTTGTTAGCTCGAGTAAACAAATTTTCCTAATCTTTCTGTTCAAGCGCCATCTAC | 1.36 RPM ratio (pull-down/input)
18 | GATGATTGTTCTCCCAGCTGATGAATTGAAGTTATCGAGTAAACAAATTTTCCTAATCTTTCTGTTCAAGCGCCATCTAC | 0.989 RPM ratio (pull-down/input)
19 | GATGATTGTTCTCCCAGCTGATGAATTGGAATAGTCGAGTAAACAAATTTTCCTAATCTTTCTGTTCAAGCGCCATCTAC | 0.865 RPM ratio (pull-down/input)
20 | GATGATTGTTCTCCCAGCTGATGAATTCCACTACTCGAGTAAACAAATTTTCCTAATCTTTCTGTTCAAGCGCCATCTAC | 0.729 RPM ratio (pull-down/input)
21 | GATGATTGTTCTCCCAGCTGATGAATTTCGTTAATCGAGTAAACAAATTTTCCTAATCTTTCTGTTCAAGCGCCATCTAC | 0.996 RPM ratio (pull-down/input)

Row | Sequence | binding signal
22 | GATGATTGTTCTCCCAGCTGATGAATTCGCTTCCTCGAGTAAACAAATTTTCCTAATCTTTCTGTTCAAGCGCCATCTAC | 0.851 RPM ratio (pull-down/input)
23 | GATGATTGTTCTCCCAGCTGATGAATTGGTTAAGTCGAGTAAACAAATTTTCCTAATCTTTCTGTTCAAGCGCCATCTAC | 0.981 RPM ratio (pull-down/input)
24 | GATGATTGTTCTCCCAGCTGATGAATTTGGACTTTCGAGTAAACAAATTTTCCTAATCTTTCTGTTCAAGCGCCATCTAC | 0.93 RPM ratio (pull-down/input)
25 | GATGATTGTTCTCCCAGCTGATGAATTCACCGCTTCGAGTAAACAAATTTTCCTAATCTTTCTGTTCAAGCGCCATCTAC | 0.855 RPM ratio (pull-down/input)
26 | GATGATTGTTCTCCCAGCTGATGAATTACATGGGTCGAGTAAACAAATTTTCCTAATCTTTCTGTTCAAGCGCCATCTAC | 0.956 RPM ratio (pull-down/input)
27 | GATGATTGTTCTCCCAGCTGATGAATTGGAGCATTCGAGTAAACAAATTTTCCTAATCTTTCTGTTCAAGCGCCATCTAC | 1.03 RPM ratio (pull-down/input)
28 | GATGATTGTTCTCCCAGCTGATGAATTACACACCTCGAGTAAACAAATTTTCCTAATCTTTCTGTTCAAGCGCCATCTAC | 1.24 RPM ratio (pull-down/input)
29 | GATGATTGTTCTCCCAGCTGATGAATTTATGATTTCGAGTAAACAAATTTTCCTAATCTTTCTGTTCAAGCGCCATCTAC | 1.37 RPM ratio (pull-down/input)
30 | GATGATTGTTCTCCCAGCTGATGAATTTGTAACATCGAGTAAACAAATTTTCCTAATCTTTCTGTTCAAGCGCCATCTAC | 1.45 RPM ratio (pull-down/input)
31 | GATGATTGTTCTCCCAGCTGATGAATTATGCTTATCGAGTAAACAAATTTTCCTAATCTTTCTGTTCAAGCGCCATCTAC | 1.63 RPM ratio (pull-down/input)
32 | GATGATTGTTCTCCCAGCTGATGAATTCATCCTTTCGAGTAAACAAATTTTCCTAATCTTTCTGTTCAAGCGCCATCTAC | 0.917 RPM ratio (pull-down/input)
33 | GATGATTGTTCTCCCAGCTGATGAATTAGATTGCTCGAGTAAACAAATTTTCCTAATCTTTCTGTTCAAGCGCCATCTAC | 0.987 RPM ratio (pull-down/input)
34 | GATGATTGTTCTCCCAGCTGATGAATTGGCTCCGTCGAGTAAACAAATTTTCCTAATCTTTCTGTTCAAGCGCCATCTAC | 0.78 RPM ratio (pull-down/input)
35 | GATGATTGTTCTCCCAGCTGATGAATTGTATATATCGAGTAAACAAATTTTCCTAATCTTTCTGTTCAAGCGCCATCTAC | 1.6 RPM ratio (pull-down/input)
36 | GATGATTGTTCTCCCAGCTGATGAATTGTAATGTTCGAGTAAACAAATTTTCCTAATCTTTCTGTTCAAGCGCCATCTAC | 1.05 RPM ratio (pull-down/input)
37 | GATGATTGTTCTCCCAGCTGATGAATTGATTGTATCGAGTAAACAAATTTTCCTAATCTTTCTGTTCAAGCGCCATCTAC | 1.54 RPM ratio (pull-down/input)
38 | GATGATTGTTCTCCCAGCTGATGAATTGGGTGAATCGAGTAAACAAATTTTCCTAATCTTTCTGTTCAAGCGCCATCTAC | 0.922 RPM ratio (pull-down/input)
39 | GATGATTGTTCTCCCAGCTGATGAATTCCCCGCTTCGAGTAAACAAATTTTCCTAATCTTTCTGTTCAAGCGCCATCTAC | 0.77 RPM ratio (pull-down/input)
40 | GATGATTGTTCTCCCAGCTGATGAATTCGGATAATCGAGTAAACAAATTTTCCTAATCTTTCTGTTCAAGCGCCATCTAC | 1.08 RPM ratio (pull-down/input)
41 | GATGATTGTTCTCCCAGCTGATGAATTCAGGTGCTCGAGTAAACAAATTTTCCTAATCTTTCTGTTCAAGCGCCATCTAC | 0.812 RPM ratio (pull-down/input)
42 | GATGATTGTTCTCCCAGCTGATGAATTACTCAACTCGAGTAAACAAATTTTCCTAATCTTTCTGTTCAAGCGCCATCTAC | 1.08 RPM ratio (pull-down/input)

Row | Sequence | binding signal
43 | GATGATTGTTCTCCCAGCTGATGAATTGCCTCATTCGAGTAAACAAATTTTCCTAATCTTTCTGTTCAAGCGCCATCTAC | 1.05 RPM ratio (pull-down/input)
44 | GATGATTGTTCTCCCAGCTGATGAATTGACGAAATCGAGTAAACAAATTTTCCTAATCTTTCTGTTCAAGCGCCATCTAC | 1.25 RPM ratio (pull-down/input)
45 | GATGATTGTTCTCCCAGCTGATGAATTGGGATGCTCGAGTAAACAAATTTTCCTAATCTTTCTGTTCAAGCGCCATCTAC | 1.11 RPM ratio (pull-down/input)
46 | GATGATTGTTCTCCCAGCTGATGAATTGAGGGACTCGAGTAAACAAATTTTCCTAATCTTTCTGTTCAAGCGCCATCTAC | 0.774 RPM ratio (pull-down/input)
47 | GATGATTGTTCTCCCAGCTGATGAATTCGTCTCCTCGAGTAAACAAATTTTCCTAATCTTTCTGTTCAAGCGCCATCTAC | 0.869 RPM ratio (pull-down/input)
48 | GATGATTGTTCTCCCAGCTGATGAATTCTGTCACTCGAGTAAACAAATTTTCCTAATCTTTCTGTTCAAGCGCCATCTAC | 1.09 RPM ratio (pull-down/input)
49 | GATGATTGTTCTCCCAGCTGATGAATTGGTCGATTCGAGTAAACAAATTTTCCTAATCTTTCTGTTCAAGCGCCATCTAC | 0.891 RPM ratio (pull-down/input)
50 | GATGATTGTTCTCCCAGCTGATGAATTGTTAATTTCGAGTAAACAAATTTTCCTAATCTTTCTGTTCAAGCGCCATCTAC | 1.43 RPM ratio (pull-down/input)
51 | GATGATTGTTCTCCCAGCTGATGAATTACGGTCCTCGAGTAAACAAATTTTCCTAATCTTTCTGTTCAAGCGCCATCTAC | 0.864 RPM ratio (pull-down/input)
52 | GATGATTGTTCTCCCAGCTGATGAATTATCGCATTCGAGTAAACAAATTTTCCTAATCTTTCTGTTCAAGCGCCATCTAC | 1.4 RPM ratio (pull-down/input)
53 | GATGATTGTTCTCCCAGCTGATGAATTGCTCGTATCGAGTAAACAAATTTTCCTAATCTTTCTGTTCAAGCGCCATCTAC | 1.05 RPM ratio (pull-down/input)
54 | GATGATTGTTCTCCCAGCTGATGAATTTGTGTGATCGAGTAAACAAATTTTCCTAATCTTTCTGTTCAAGCGCCATCTAC | 1.3 RPM ratio (pull-down/input)
55 | GATGATTGTTCTCCCAGCTGATGAATTATTATACTCGAGTAAACAAATTTTCCTAATCTTTCTGTTCAAGCGCCATCTAC | 1.17 RPM ratio (pull-down/input)
56 | GATGATTGTTCTCCCAGCTGATGAATTTTCCATATCGAGTAAACAAATTTTCCTAATCTTTCTGTTCAAGCGCCATCTAC | 0.875 RPM ratio (pull-down/input)
57 | GATGATTGTTCTCCCAGCTGATGAATTCAACCCCTCGAGTAAACAAATTTTCCTAATCTTTCTGTTCAAGCGCCATCTAC | 0.806 RPM ratio (pull-down/input)
58 | GATGATTGTTCTCCCAGCTGATGAATTGTATGTTTCGAGTAAACAAATTTTCCTAATCTTTCTGTTCAAGCGCCATCTAC | 1.58 RPM ratio (pull-down/input)
59 | GATGATTGTTCTCCCAGCTGATGAATTCCGCTGCTCGAGTAAACAAATTTTCCTAATCTTTCTGTTCAAGCGCCATCTAC | 0.807 RPM ratio (pull-down/input)
60 | GATGATTGTTCTCCCAGCTGATGAATTGGAATGTTCGAGTAAACAAATTTTCCTAATCTTTCTGTTCAAGCGCCATCTAC | 0.856 RPM ratio (pull-down/input)
61 | GATGATTGTTCTCCCAGCTGATGAATTGCCCGGATCGAGTAAACAAATTTTCCTAATCTTTCTGTTCAAGCGCCATCTAC | 0.853 RPM ratio (pull-down/input)
62 | GATGATTGTTCTCCCAGCTGATGAATTGTTCCCCTCGAGTAAACAAATTTTCCTAATCTTTCTGTTCAAGCGCCATCTAC | 1.05 RPM ratio (pull-down/input)
63 | GATGATTGTTCTCCCAGCTGATGAATTCCCACGTTCGAGTAAACAAATTTTCCTAATCTTTCTGTTCAAGCGCCATCTAC | 0.833 RPM ratio (pull-down/input)
